Measured values taken from PubChem BioAssay AID686978 (National Center for Advancing Translational Sciences (NCATS), 2013).
Where “and” joins values, the source holds several entries; their conditions need not be identical. Identical values can stand only once. The campaign covered roughly 420,000 compounds. About 64,000 (15%) were called active. This list was built around the results that the source calls inconclusive (neither active nor inactive); the mix of calls is not that of the screen. Calls follow the shape of the dose curve; as a rule, active = well fitted inhibition curve with a large enough effect; inconclusive = small, poorly fitted or top-dose-only effect; inactive = flat fitted curve, though single readings scatter. Potencies of inconclusive entries are left out as doubtful fits.

experiment: qHTS for Inhibitors of human tyrosyl-DNA phosphodiesterase 1 (TDP1): qHTS in cells in absence of CPT; details: DT40 Tdp1-/- hTDP1 cells, no CPT, ATP luminescence, 48 h; activity change, negative = growth inhibition: at 46.2 µM (top of the series) unless noted; also: nearly all actives have a fitted effect of over 55% in size
How it was run: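 Chicken DT40 Tdp1-/- cells stably complemented with human TDP1 were seeded at 400 cells/well with DMSO in place of 20 nM camptothecin. After compound pinning, cells grew at least 48 hr at 37 °C; viability read by CellTiter-Glo luminescence.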
% is scaled to controls: 0 for no effect and ±100 for the full control effect; potency is read from the fitted curve at half-maximal effect; tags tell the direction and shape of the fitted curve.

SMILES	activity change, negative = growth inhibition	Potency
OCCNCC(O)Cn1ccc2ccccc21 (stereo not drawn)	inactive: -2.36%	–
O=C(c1cc([N+](=O)[O-])ccc1N1CCN(S(=O)(=O)c2ccc(Cl)c(Cl)c2)CC1)N1CCOCC1	–	inconclusive [inhibitor, single point]
COc1ccc(NC(=O)c2coc(=O)c3ccccc23)cc1OC	–	inconclusive [inhibitor, partial curve]
CCOC(=O)c1ccc2c(c1)C1C=CCC1C(C(=O)OCC)N2 (stereo not drawn)	–	inconclusive [inhibitor, single point]
CN(C(=O)c1ccc(NC(=O)Cc2ccc([N+](=O)[O-])cc2)cc1)C1CC1	–	inconclusive [inhibitor, single point]
CN(C)CCN(C(=O)/C=C/c1cccs1)c1nc2ccc(Br)cc2s1	–	inconclusive [inhibitor, single point]
COc1ccc(CCNc2oc(-c3ccco3)nc2C#N)cc1	–	inconclusive [inhibitor, single point]
O=C(NCc1ccccn1)c1ccc(Cl)cc1Cl	inactive: -9.01%	–
CCOc1ccc(OCCCCOc2ccccc2C(C)=O)cc1	–	inconclusive [inhibitor, single point]
CC(=O)c1ccc(OC(C)C)c(CSC(=N)N)c1	–	inconclusive [inhibitor, partial curve]
CC(C)OCCCNC(=O)COCC(=O)Nc1ccc(OCCc2ccccc2)cc1	–	active: 13 µM
CN(C)CCn1cnc2c1c(=O)n(C)c(=O)n2C	inactive: -7.3%	–
COc1ccc2nc(NC(=O)CN3C(=O)NC4(CCCCC4)C3=O)sc2c1	inactive: -18.5%	–
c1ccc(Cn2nnc(CNc3ccccc3)c2-c2c(CNc3ccccc3)nnn2Cc2ccccc2)cc1	–	inconclusive [inhibitor, single point]
COc1ccc(C(=O)CC(C#N)c2ccc3c(c2)OCO3)cc1OC (stereo not drawn)	–	active: 20.6 µM
COc1cc(NC(=O)c2cc3sccc3n2C)cc(OC)c1	–	inconclusive [inhibitor, single point]
CC(C)[C@H](NC(=O)c1ccccc1)C(=O)OCC(=O)c1ccc2c(c1)NC(=O)CO2	–	active: 5.8 µM
O=C1NC(=S)S/C1=C1\Sc2ccccc2N1CCCS(=O)(=O)O	inactive: -12.2%	–
O=c1[nH]c2ccccc2cc1CN(Cc1cccnc1)S(=O)(=O)c1ccc(Cl)cc1	–	active: 25.9 µM
CCc1cc(C(=O)OC)c(NC(=O)C2CC(=O)NN2Cc2ccccc2)s1 (stereo not drawn)	–	inconclusive [inhibitor, single point]
Cc1nc2cc(C(=O)OCC(=O)NC34CC5CC(CC(C5)C3)C4)ccc2n1-c1ccccc1	–	inconclusive [inhibitor, single point]
O=C(c1cccnc1)C1CCCN(Cc2ccc3c(c2)CN(C(=O)c2cccs2)CCO3)C1 (stereo not drawn)	–	inconclusive [inhibitor, single point]
O=C(NNC(=O)C1COc2ccccc2O1)c1ccccc1 (stereo not drawn)	inactive: -12%	–
CN(C)CCNc1ccc(-c2nn(C)c(=O)c3ccccc23)cc1[N+](=O)[O-]	–	active: 23.1 µM
Cc1ccc(N(CC(=O)Nc2c(C)cccc2C)S(C)(=O)=O)cc1	inactive: -16.5%	–

SMILES	activity change, negative = growth inhibition	Potency
COC(=O)c1ccccc1NC(=O)C1CCN(C(=O)c2cc(OC)c(OC)c(OC)c2)CC1	–	inconclusive [inhibitor, partial curve]
Cc1ccc(C2(CCNCc3ccc(N(C)C)cc3)CCOC(C(C)C)C2)cc1 (stereo not drawn)	inactive: -109%	–
COc1cc2ncnc(Nc3cccc(Cl)c3)c2cc1OC	–	active: 15 µM and active: 16.4 µM and active: 12.6 µM
Cc1ccc(-c2nc(CSCC(=O)NC3CCN(Cc4ccccc4)CC3)c(C)o2)cc1	–	active: 16.4 µM
CC1(C)Cc2nc3oc4c(N5CCOCC5)ncnc4c3cc2CO1	inactive: -21.7%	–
CC(C(=O)NCC1CCCCC1)N1CCN(S(=O)(=O)c2cccs2)CC1 (stereo not drawn)	–	inconclusive [inhibitor, single point]
Cc1cccc(C)c1OCC(=O)Nc1cccc(-c2nnc(-c3ccccc3)o2)c1	–	active: 16.4 µM
COCCNC(=S)NN(c1ccccc1)c1ccccc1	inactive: -4.53%	–
c1ccc(CN2CCc3[nH]c4ccccc4c3C2)cc1	–	inconclusive [inhibitor, partial curve, poor fit]
CCCCOc1ccc(C(=O)NCC(=O)N2CC=C(c3ccccc3)CC2)cc1	–	inconclusive [inhibitor, single point]
Cc1c(NS(=O)(=O)c2ccc(N(C)C3CCCCC3)c([N+](=O)[O-])c2)c(=O)n(-c2ccccc2)n1C	–	inconclusive [inhibitor, partial curve]
COCCCNc1ccn2nc(-c3ccc(OCCN4CCOCC4)cc3)cc2n1	–	active: 11.6 µM
Cc1nc(Cl)sc1C(=O)Nc1ccccc1Cl	–	inconclusive [inhibitor, single point]
O=c1ccc(-c2ccc(S(=O)(=O)Nc3ccc(F)cc3)s2)n[nH]1	inactive: 6.78%	–
Cc1ccc(C(=O)N/N=C\c2ccc(-c3ccc(Cl)c(Cl)c3)o2)cn1	–	inconclusive [inhibitor, single point]
COc1cc2c(cc1OC)C(c1ccc(N(C)C)cc1)NCC2 (stereo not drawn)	–	inconclusive [inhibitor, partial curve, poor fit]
COc1ccc(CC(=O)NCC(=O)N/N=C/c2sccc2C)cc1	inactive: 1.56%	–
CCc1nn(CCCC(=O)Nc2ccc(C)c(C)c2)c(=O)c2cc3occc3n12	–	inconclusive [inhibitor, single point]
COc1ccc(/C=N/NC(=O)c2ccc(Cl)cc2)cc1Cn1cc(Cl)cn1	–	inconclusive [inhibitor, single point]
O=C(NCC1CCCO1)c1cc2ccccc2cc1O (stereo not drawn)	–	inconclusive [inhibitor, single point]
COCc1cc(CN2CCCC(C(=O)c3cccc(C(F)(F)F)c3)C2)ccc1OC (stereo not drawn)	–	inconclusive [inhibitor, single point]
CC(=O)c1ccc(OCC(=O)N2CCN(S(=O)(=O)c3ccc(C)cc3C)CC2)cc1	–	inconclusive [inhibitor, single point]
CCOC(=O)c1ccc(NC(=O)CCNS(=O)(=O)c2cccs2)cc1	–	inconclusive [inhibitor, partial curve]
COc1ccccc1C(NC(=O)C1CCN(CCOc2ccc(Cl)cc2Cl)CC1)c1ccccn1 (stereo not drawn)	–	inconclusive [inhibitor, single point]
O=c1cc(Nc2ccc3c(c2)OCCO3)[nH]c(=O)n1-c1ccc(Cl)cc1	–	active: 18.4 µM

SMILES	activity change, negative = growth inhibition	Potency
CCOc1ccc(S(=O)(=O)NCCc2ccccn2)cc1	inactive: -25.3%	–
Cn1c(=O)c2c(-c3ccccc3)n(C3CCCCC3)cc2n(C)c1=O	–	active: 9.2 µM
COc1cc2c(cc1OC)C(COc1ccc3c(C)cc(=O)oc3c1)N(C(=O)c1cccc(OC)c1OC)CC2 (stereo not drawn)	–	active: 23.1 µM
COc1ccc(/C=N/NC(=O)c2cccnc2)cc1O	inactive: -1.77%	–
CCOC(=O)Nc1nnc(-c2ccc(OC)cc2)s1	inactive: -1.59%	–
O=C(COc1ccccc1C(=O)O)Nc1ccc(SC(F)F)cc1	–	active: 16.4 µM
O=[N+]([O-])c1cccc(C(=S)N2CCN(c3ccccc3)CC2)c1	–	inconclusive [inhibitor, single point]
COCCn1c(C)cc(O)c(C(c2ccccc2)N2CCN(CCO)CC2)c1=O (stereo not drawn)	inactive: -7.47%	–
Cc1ccc(NC(=O)CSc2nc3ccccc3nc2N2CCCC2)cc1	–	active: 9.2 µM
CC(=O)c1cccc(NC(=O)c2ccc3c(=O)n4c(nc3c2)CCCCC4)c1	–	inconclusive [inhibitor, single point]
Cc1cccc(N2CCN(C(=O)c3ccc4c(c3)c(C)c(C)n4C)CC2)c1C	–	inconclusive [inhibitor, partial curve, poor fit]
CN(CC(=O)Nc1cccc2c1CCCC2)S(=O)(=O)c1ccccc1	–	inconclusive [inhibitor, partial curve, poor fit]
CCOc1ccc(NC(=O)N2CCC(CN3CCCCCC3)CC2)cc1	–	inconclusive [inhibitor, single point]
CCC(C)Nc1nc2c(c(=O)n(C)c(=O)n2C)n1Cc1ccc(Cl)cc1 (stereo not drawn)	–	active: 23.1 µM
CC(C)=C[C@@H]1C[C@H](C)[C@H]2CC[C@H](C)c3c(O[C@@H]4O[C@@H](C)[C@@H](O)[C@@H](O)[C@@H]4O)c(O)c(C)c1c32	–	inconclusive [inhibitor, single point]
O=C(COc1ncnc2cc(Cl)ccc12)c1ccccc1	–	inconclusive [inhibitor, single point]
O=C(O)CC(CC(=O)O)(C(=O)O)c1ccccc1	inactive: 6.62%	–
Cc1ccc(OCC(=O)NNC(=O)c2cccnc2)cc1C	inactive: -17.7%	–
CCCn1nc2cc(C(=O)NCCc3cccs3)ccc2c1OCC	–	active: 18.4 µM
CC(O)(c1ccc(F)c(F)c1)c1nc(-c2cccc(F)c2)cs1 (stereo not drawn)	–	inconclusive [inhibitor, single point]
COc1ccc(CCN(C)C/C=C/c2ccccc2[N+](=O)[O-])cc1OC	–	inconclusive [inhibitor, single point]
O=[N+]([O-])c1cc(C(F)(F)F)cc([N+](=O)[O-])c1NCCN1CCNCC1	–	active: 20.6 µM
CCC1=C(OC(=O)N(CC)CC)N2C(=O)OC(=NCc3ccccc3)[C@]2(C)[C@H]2C1=CC[C@H]1C(=O)N(c3ccccc3)C(=O)[C@H]12	–	inconclusive [inhibitor, single point]
